Laboratory results as given in the RNAGym collection of RNA variant scans (doi:10.1093/nar/gkz1192).
The source gives no read counts; variants with many changes may rest on few reads.

B1: CPEB3 Ribozyme (parent)
chain: UAACAGGGGGCCACAGCAGAAGCGUUCACGUCGCAGCCCCUGUCAGAUUCUGGUGAAUCUGCGAAUUCUGCUGUAUAUCUC

Variants of: B1
Test: self-cleavage, relative activity (ratio to wild type); higher = more cleavage; in vitro, sequencing
Outline: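 Relative activity compares each variant's cleaved/total read fraction with that of the unmutated ribozyme. To get these fractions, barcoded CPEB3 ribozyme libraries from rounds of error-prone PCR were transcribed with T7 RNA polymerase for 5 hours at 37°C and then given 15 min of DNase I treatment before EDTA was added. The RNAs were reverse transcribed with template switching and sequenced on Illumina, and DNA sequencing linked barcodes to variants. A minimum of 5 reads applied, and three batches were averaged.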
UAACAGGGGGCCACGGCAGAAGCGUUCUCGUCGCAGCCCCUGUCAGAUUCUGGUGAAUCUGCGAAUUCUGCUGUACAUCUC showed a self-cleavage of 0.45.
For UAACAGGGGGCCACGGCAGAAGCGUUCUCGUCGCAGCCCCUGUCUGAUUCUGGUGAAUCCGUGAAUUCUGCAGUAUAUCUC, the self-cleavage was 0.03.
UAACAGGGGGCCACGGCAGAAGCGUUCACGUCGCGGCCCCUGUCAGAUUCUGGUGAAUCUGCGAGUUCUGCUGUAUAUCUC showed a self-cleavage of 0.3.
UAACAGGGGGCCACGGCAGAAGCGUUCGCGUCGCAGCCCCUGUCAGAUUCUGGUGGAUCUGCGAACUCUGCUGCAUAUCUC showed a self-cleavage of 0.07.
UAACAGGGGGCCACGGCAGAAGCGUUCACGUCGCGGCCCGCGUCAGAUUCUGGUGAAUCCGCGAAUUCUGCUGUAUAUCUC gave a self-cleavage of 0.14.
UAACAGGGGGCCACGGCAGAAGCGUUCACGUCGCGGCCCCUGUCAGACUCUGGUGAUUCUGCGAACCCUGCUGUAUAUCCC showed a self-cleavage of 0.06.
In the case of UAACAGGGGGCCACGGCAGAAGCGUUCACGUCGCGGCCCCUGUCAGAUUCUGGAGAAUCUGCGAAUUCUGCUGUAUAUCUC, the self-cleavage is reported as 0.77.
UAACAGGGGGCCACGGCAGAAGCGUUCGCGUCGCAGCCCCUGUCAGAUUCUGGUGAGUCUGCGAAUUCUGCUGUAUAUCUC showed a self-cleavage of 0.44.
In the case of UAACAGGGGGCCACGGCAGAAGCGUUCGCGUCGCAGCCCCUGUCUGAUUCUGCUGAAUCUGCAAAUUCUGCUGUAUAUCUC, the self-cleavage is reported as 0.13.
Work on UAACAGGGGGCCACGGCAGAAGCGUUCGCGCCGCAGCCCCUGUCAGAUUCUGGUGAAUCUGCGAAUUCUGCUGUUUAUCCC yielded a self-cleavage of 0.24.
For UAACAGGGGGCCACGGCAGAAGCGUUCUCGUCGCAGCCCCUGUCAGAUUCUGGUGAAUCUGCGUAUUCUGCUGUACAUCUC, the self-cleavage was 0.14.
In the case of UAACAGGGGGCCACGGCAGAAGCGUUCGCGUUGCAGCCCCUGUCUGAUCCUGGUGUAUCUGCGAAUUCUGCUGUAUACCUC, the self-cleavage is reported as 0.05.
UAACAGGGGGCCACGGCAGAAGCGUUCGAGUCGCAGCCCCUGUCAGAUUCUGGUGAAUCUGCGAAUUCCGCUGUAUAUCUC showed a self-cleavage of 0.19.
In the case of UAACAGGGGGCCACGGCAGAAGCGUUCACGUCGCGGCCCCUGUCAGAUUUUGGUGAAUCUGCGAAUUCUGCUGUAUAUCUC, the self-cleavage is reported as 0.17.
With UAACAGGGGGCCACGGCAGAAGCGUUCGUGUCGCCGCCCCUGUCAGAUUCUGGUGAAUCUGAGAAUUCUGCUGUAUGUCUC the self-cleavage was 0.04.
UAACAGGGGGCCACGGCAGAAGCGUUCGCGCCGCAGCCCCUGUCAGAUUCUGGUGAAUCUGCGAAUUCUGCUGUAUAUCUC gave a self-cleavage of 0.12.
With UAACAGGGGGCCACGGCAGAAGCGUUCUCGUCGCAGCCCCUGUCAGAUUCUGGUGUAUCUGCGAAUACUGCUGCAUAUCUC the self-cleavage was 0.16.
In the case of UAACAGGGGGCCACGGCAGAAGCGUUCCCGUCGCAGCCCCUGUCAGAUUCUGGUGAAUCAGCGAUUUCUGCUGUAUAUCCC, the self-cleavage is reported as 0.12.
With UAACAGGGGGCCACGGCAGAAGCGUUCACGUCGCGGCCCCUGUCGGAUACUGGUGAAUCUGCGAAUUCUGCUGUAUAUCUC the self-cleavage was 0.16.
In the case of UAACAGGGGGCCACGGCAGAAGCGUUCACGUCGCGGCCCCUGUCUGAUUCUGGUGAAUCUGCGAAUUCUGCUGUAUAUCAC, the self-cleavage is reported as 0.49.
Variant UAACAGGGGGCCACGGCAGAAGCGUUCACGUCGCGGCCCCUGUCAGAUUCAGGUGAAUCUGAGAAUUCUGCUGUAUAUCUC has a self-cleavage of 0.16.
In the case of UAACAGGGGGCCACGGCAGAAGCGUUCUCGUCGCAGCCCCUGUCAGAUUCUGGCGAAUCUGCGAAGUCUGCUGUAUAUCUC, the self-cleavage is reported as 0.18.
UAACAGGGGGCCACGGCAGAAGCGUUCGCGUCGCAGCCCCUGUCAGAUUCUGGUGAAUCUGCGCACUCUGCUGUAUAUCCC gave a self-cleavage of 0.07.
For UAACAGGGGGCCACGGCAGAAGCGUUCGCGUCGCAGCCCCUGUCAGAUUCUGGUGAAUCUGCGAAUUCUGCUGUAUAUCCC, the self-cleavage was 0.56.
For UAACAGGGGGCCACGGCAGAAGCGUUCUCGUCGCUGCCCCUGUCAGAUCCUGGUGAAUCUGCGAAUUCUGCUGUAUAUCUC, the self-cleavage was 0.08.
UAACAGGGGGCCACGGCAGAAGCGUUCACGUCGCGGCCCCUGUCAGAUUCUGGUGGAUCCGCGAAUUCUGCUGUAUAUCUC showed a self-cleavage of 0.47.
Variant UAACAGGGGGCCACGGCAGAAGCGUUCGCGUCGCAGCCCCCGUCAGAUUCUGGUGAAUCUGCGAAUCCUGCUGUAUAUCUC has a self-cleavage of 0.16.
For UAACAGGGGGCCACGGCAGAAGCGUUCUCGUCGCAGCCCCUGUCAGAUUCUGGUGAAACUACGAAUUCUGCUGUAUGUCUC, the self-cleavage was 0.08.
Work on UAACAGGGGGCCACGGCAGAAGCGUUCGCGUCGCAGCCCCUGUCAGAUUCUGGUGAAUCUGCGAAUUCUGCUGUGUAUCUC yielded a self-cleavage of 0.33.
For UAACAGGGGGCCACGGCAGAAGCGUUCGCGUCGUUGCCCCUGUCAGAUUCUGGUGAAUCUGCGAAUUCUGUAGUAUAUCUC, the self-cleavage was 0.06.
In the case of UAACAGGGGGCCACGGCAGAAGCGUUCCCGUCGCAGCCCCUGUCAGAUACUGGUGAAUCUGCGAAUUCUGCUGUAUAUCUC, the self-cleavage is reported as 0.19.
With UAACAGGGGGCCACGGCAGAAGCGUUCACGUCGCGGCCCCUGUCAGAUUCUGGUGAAUCUGCGAGCUCUGCUGUAUAUCUC the self-cleavage was 0.12.
With UAACAGGGGGCCACGGCAGAAGCGUUCACGUCGCGGCGCCUGACAGAUUCUGGUGAAUCUGCGAAUUCUGCUGUAUAUCUC the self-cleavage was 0.53.
In the case of UAACAGGGGGCCACGGCAGAAGCGUUCCCGUCGCAGCCCCUGUCAGAUUCUGGUGAAUCUGCGAAUUCUGCUGUGUAUCUC, the self-cleavage is reported as 0.27.
